Reference: the supplement of paper PMC9446081
Among all 39,000 compounds or so, about 220 (0.56%) showed activity. The list shows a part of the results.

What follows are compounds tested on Escherichia coli K-12 BW25113 (assay: relative growth (OD600 normalised to plate interquartile mean) (fraction); higher = less growth inhibition, active = 0.2 or less). Conditions: 50 µM; LB; incubation time: overnight (16-24 h).
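Further: static incubation at 37 °C against the wild-type strain, values averaged over two biological replicates.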

Row | SMILES | relative growth
1 | C[C@@H]1CN([C@@H](C)CO)C(=O)c2cc(NS(=O)(=O)c3ccc(F)cc3)ccc2O[C@@H](C)CCCCO[C@@H]1CN(C)Cc1ccc2c(c1)OCO2 | inactive: 0.97
2 | CCS(=O)(=O)N1C[C@]2(CN(C2)S(=O)(=O)c2cn(cn2)C)c2c(n(c3cc(ccc23)OC)C)[C@@H]1CO | inactive: 1
3 | C[C@@H]1CN([C@H](C)CO)C(=O)c2cc(NC(=O)Nc3ccc(F)cc3)ccc2O[C@H]1CN(C)Cc1ccc(Cl)c(Cl)c1 | inactive: 1.02
4 | Cc1ccccc1-c1ccc2c(c1)O[C@@H](CN(C)C(=O)Nc1ccc(C(F)(F)F)cc1)[C@@H](C)CN([C@H](C)CO)S2(=O)=O | inactive: 0.99
5 | COc1cccc(S(=O)(=O)Nc2ccc3c(c2)[C@H]2C[C@@H](CC(=O)NC4CCCCC4)O[C@H](CO)[C@H]2O3)c1 | inactive: 0.981
6 | C[C@@H]1CN([C@H](C)CO)C(=O)Cc2cc(NC(=O)c3ccncc3)ccc2O[C@@H]1CN(C)Cc1ccc(C(=O)O)cc1 | inactive: 0.968
7 | C[C@@H]1CN([C@@H](C)CO)C(=O)c2cc(NC(=O)Nc3cccc4ccccc34)ccc2O[C@@H]1CN(C)C(=O)Nc1cccc2ccccc12 | inactive: 1.01
8 | C=CCOC(=O)[C@@H]1[C@H]2C(=O)O[C@H](c3ccccc3)[C@H](c3ccccc3)N2[C@H](c2ccc(OCCOC(=O)[C@H]3C[C@H]4C(=O)N[C@@H](CCCCN(C)C)C(=O)N4[C@H]3c3cccc(OCCO)c3)cc2)[C@@]12C(=O)Nc1ccc(I)cc12 | inactive: 1.07
9 | O=C(N[C@@H](c1ccc(-c2ccccc2)cc1)c1cnccn1)C1CCN(Cc2ccc(Cl)c(Cl)c2)CC1 | inactive: 1.04
10 | C[C@H](CO)N1C[C@H](C)[C@H](CN(C)C(=O)Nc2ccc(F)cc2)OCCCC[C@H](C)Oc2ccc(NC(=O)C3CC3)cc2C1=O | inactive: 0.985
11 | COc1ccc(S(=O)(=O)Nc2ccc3c(c2)CC(=O)N([C@@H](C)CO)C[C@@H](C)[C@H](CN(C)Cc2ccc(-c4ccccc4)cc2)O3)cc1 | inactive: 0.986
12 | CCS(=O)(=O)Nc1ccc2c(c1)C(=O)N(C)C[C@H](OC)[C@@H](C)CN(C(=O)c1ccc3c(c1)OCO3)[C@H](C)CO2 | inactive: 1.03
13 | Cc1ccc(S(=O)(=O)Nc2ccc3c(c2)CC(=O)N([C@@H](C)CO)C[C@@H](C)[C@@H](CN(C)C(=O)Nc2ccc(C(F)(F)F)cc2)O3)cc1 | inactive: 0.977
14 | C[C@H]1CN([C@@H](C)CO)C(=O)Cc2cc(NC(=O)Nc3ccccc3)ccc2O[C@@H]1CN(C)Cc1ccc(Cl)c(Cl)c1 | inactive: 1.03
15 | C[C@@H]1CN([C@@H](C)CO)C(=O)CCCn2cc(nn2)CO[C@H]1CN(C)S(=O)(=O)c1ccc(Cl)cc1 | inactive: 1
16 | C[C@@H]1CN([C@H](C)CO)C(=O)c2cccc(NC(=O)c3ccncc3)c2O[C@@H]1CN(C)C(=O)Nc1ccc2c(c1)OCO2 | inactive: 0.985
17 | CO[C@H]1CN(C)C(=O)c2ccc(NC(=O)c3ccc(F)cc3)cc2OC[C@H](C)N(C(=O)CN(C)C)C[C@H]1C | inactive: 0.984
18 | C[C@@H]1CN([C@H](C)CO)C(=O)c2cc(NS(=O)(=O)c3ccc(Cl)cc3)ccc2O[C@@H]1CN(C)C(=O)Nc1ccc(C(F)(F)F)cc1 | inactive: 0.998
19 | C[C@H]1CN([C@@H](C)CO)C(=O)Cc2cc(NC(=O)Cc3ccccc3)ccc2O[C@@H]1CN(C)S(=O)(=O)c1cccs1 | inactive: 0.994
20 | C[C@@H]1CCCCO[C@@H](CN(C)CC2CCCCC2)[C@@H](C)CN([C@H](C)CO)C(=O)c2cc(NC(=O)CCCCCC(=O)Nc3ccccc3N)ccc2O1 | inactive: 1.01

Row | SMILES | relative growth
21 | COc1ccc(CNC(=O)N(C)C[C@H]2OCc3ccccc3-c3c(n(C)c4ccccc34)C(=O)N([C@@H](C)CO)C[C@H]2C)cc1 | inactive: 1.02
22 | COc1ccc(CN(C)C[C@H]2Oc3c(NS(C)(=O)=O)cccc3C(=O)N([C@@H](C)CO)C[C@@H]2C)cc1 | inactive: 0.999
23 | Cc1ccc(S(=O)(=O)Nc2ccc3c(c2)C(=O)N([C@@H](C)CO)C[C@@H](C)[C@H](CN(C)S(=O)(=O)c2ccc(F)cc2)OCCCC[C@@H](C)O3)cc1 | inactive: 1.04
24 | Cc1ccc(S[C@]2(C(=O)NC(C)C)CC(=O)N(Cc3ccccc3Cl)[C@@H]2c2ccc(CO)cc2)cc1 | inactive: 1.04
25 | Cc1noc(C)c1NC(=O)N(C)C[C@@H]1OCCCC[C@H](C)Oc2ccc(NC(=O)C3CCCCC3)cc2C(=O)N([C@H](C)CO)C[C@H]1C | inactive: 0.983
26 | C=CC(=O)N[C@H]1CCCN(CC)C1 | inactive: 0.975
27 | Cc1noc(C)c1S(=O)(=O)Nc1ccc2c(c1)C(=O)N([C@@H](C)CO)C[C@H](C)[C@@H](CN(C)S(=O)(=O)c1cccs1)O2 | inactive: 0.989
28 | C[C@@H]1CN([C@@H](C)CO)C(=O)c2cc(C#CCN(C)C)cnc2O[C@H]1CN(C)Cc1cccc(C(=O)O)c1 | inactive: 1.01
29 | C[C@@H]1CN([C@@H](C)CO)C(=O)c2cccc(NC(=O)c3ccncc3)c2O[C@@H]1CN(C)S(=O)(=O)c1ccccc1 | inactive: 0.975
30 | COCC(=O)N1C[C@@H](C)[C@H](OC)CN(C)C(=O)c2cc(NC(=O)c3ccc(F)cc3)ccc2OC[C@H]1C | inactive: 1.01
31 | C[C@H]1CN([C@@H](C)CO)C(=O)Cc2cc(NC(=O)CCN3CCOCC3)ccc2O[C@@H]1CN(C)S(=O)(=O)c1ccccc1 | inactive: 1.02
32 | COc1cccc(C#Cc2cnc3c(c2)C(=O)N([C@H](C)CO)C[C@@H](C)[C@H](CN(C)C(=O)C2CCC2)O3)c1 | inactive: 1.01
33 | C[C@@H]1CN([C@@H](C)CO)S(=O)(=O)c2ccc(C#Cc3ccccc3F)cc2O[C@@H]1CN(C)C(=O)c1ccc2c(c1)OCO2 | inactive: 0.959
34 | COc1ccccc1C#Cc1ccc2c(c1)O[C@@H](CN(C)Cc1ccncc1)[C@H](C)CN([C@H](C)CO)S2(=O)=O | inactive: 1.04
35 | O=C(O)c1c(O)c2c([nH]c1=O)CCCC2 | active: 0.104
36 | Cl.NC(CO)C(=O)NNCc1ccc(O)c(O)c1O (stereo not drawn) | inactive: 0.941
37 | COc1ccc([C@H]([C@H](Cc2ccccc2)OC(C)=O)N(C/C=C/[C@@H](OC(C)=O)c2ccccc2)[C@@H](Cc2ccccc2)C(OC)OC)cc1 | inactive: 1.04
38 | CO[C@H]1CN(C)C(=O)c2ccc(NC(=O)C3CC3)cc2OC[C@H](C)N(C(=O)C2CCOCC2)C[C@@H]1C | inactive: 0.997
39 | C[C@@H]1CN([C@@H](C)CO)C(=O)Cc2cc(NC(=O)CCN3CCOCC3)ccc2O[C@H]1CN(C)S(C)(=O)=O | inactive: 1.02
40 | Cc1nnn2c1COC[C@H](CNS(C)(=O)=O)C2 | inactive: 1

Row | SMILES | relative growth
41 | C[C@@H]1CN([C@H](C)CO)C(=O)c2cc(NC(=O)Nc3ccc(F)cc3)ccc2O[C@@H]1CN(C)Cc1ccc(C(F)(F)F)cc1 | inactive: 0.974
42 | O=c1cc(CN2CCCC2)nc2n1CCCNC2 | inactive: 0.968
43 | C[C@H]1CC/C=C\[C@H]2O[C@@]34C=CCN(c5ccc(Cl)cc5)C(=O)[C@H]3N([C@@H](C)CO)C(=O)[C@]4(C)[C@@H]2C(=O)O1 | inactive: 0.999
44 | CN(Cc1cnc2nc(N)nc(N)c2n1)c1ccc(C(=O)NC(CCC(=O)O)C(=O)O)cc1.O (stereo not drawn) | inactive: 0.943
45 | C[C@@H]1CCCCO[C@H](CN(C)S(=O)(=O)c2ccccc2)[C@H](C)CN([C@H](C)CO)C(=O)c2cc(NC(=O)C3CCCCC3)ccc2O1 | inactive: 0.923
46 | C[C@H](N)c1ccc(Cl)cc1 | inactive: 1.01
47 | C[C@@H]1CN([C@@H](C)CO)C(=O)Cc2cc(NC(=O)Cc3ccccc3)ccc2O[C@H]1CN(C)S(=O)(=O)c1cccs1 | inactive: 1.01
48 | C[C@@H]1CCCCO[C@@H](CN(C)CC2CC2)[C@H](C)CN([C@@H](C)CO)C(=O)c2cc(NC(=O)Nc3ccc4c(c3)OCO4)ccc2O1 | inactive: 0.982
49 | C[C@@H]1CN([C@H](C)CO)C(=O)c2cccc(NS(=O)(=O)c3cn(C)cn3)c2O[C@H]1CN(C)Cc1ccccc1 | inactive: 0.975
50 | CCS(=O)(=O)Nc1ccc2c(c1)C(=O)N(C)[C@@H]1CC[C@@H](CC(=O)NCCCN3CCOCC3)O[C@@H]1CO2 | inactive: 0.993
51 | C[C@H](CO)N1C[C@H](C)[C@@H](CN(C)C(=O)Nc2ccc(C(F)(F)F)cc2)Oc2ccc(NS(C)(=O)=O)cc2CC1=O | inactive: 1
52 | O=C1O[C@@H](c2ccccc2)[C@@H](c2ccccc2)N2[C@@H](c3ccccc3OCCO)[C@]3(C(=O)Nc4ccc(C#CC5(O)CCCCCC5)cc43)[C@@H](C(=O)N3CCCCCCC3)[C@H]12 | inactive: 1.04
53 | CCOC(=O)CN1C[C@]23C=C[C@H](O2)[C@@H](C(=O)NCc2ccc(OC)cc2)[C@H]3C1=O | inactive: 1.03
54 | O=C(C[C@H]1CC[C@@H](NC(=O)CN2CCOCC2)[C@H](CO)O1)NCCc1ccccc1 | inactive: 1.01
55 | C[C@@H]1CN([C@H](C)CO)C(=O)c2cc(NC(=O)Nc3ccc(F)cc3)ccc2O[C@@H](C)CCCCO[C@H]1CN(C)C(=O)Nc1ccccc1 | inactive: 0.997
56 | COc1ccc(-c2cc(=O)c3c(O)c(OC)c(OC4OC(COC5OC(C)C(O)C(O)C5O)C(O)C(O)C4O)cc3o2)cc1 (stereo not drawn) | inactive: 1.04
57 | Cc1ccc(S(=O)(=O)Nc2ccc3c(c2)C(=O)N([C@@H](C)CO)C[C@@H](C)[C@@H](CN(C)Cc2ccc(C(F)(F)F)cc2)O3)cc1 | inactive: 1.04
58 | C[C@@H]1CCCCO[C@H](CN(C)C(=O)Nc2ccc3c(c2)OCO3)[C@@H](C)CN([C@H](C)CO)C(=O)c2cc(NC(=O)c3ccccc3)ccc2O1 | inactive: 1.04
